Measured values from the supplement of paper PMC4604168 (melanoma cell lines).
Some of the results follow. Single values are uncertain, as repeats are few or missing.
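Further: cells treated in 1,536-well plates, then fixed and DAPI-stained, with nuclei counted from automated high-throughput microscope images.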

The compounds below were run on C32 (assay: cell count relative to DMSO control; melanoma cells; higher = more viable cells). Settings: library dose: standard library concentration; 72 h.
`CCCS(=O)(=O)Nc1ccc(F)c(C(=O)c2c[nH]c3ncc(Cl)cc23)c1F` + NC(=O)Nc1cc(-c2cccc(F)c2)sc1C(=O)N[C@H]1CCCNC1 [AZD7762] (first compound 0.4 µM, partner dose 0.1 µM) showed a cell count of 43%.
`C=C(c1ccc(C(=O)O)cc1)c1cc2c(cc1C)C(C)(C)CCC2(C)C` [Bexarotene] + COc1ccc(Cl)c(Nc2nc3ccccc3nc2NS(=O)(=O)c2cccc(NC(=O)C(C)(C)N)c2)c1 [XL147] (first compound 10 µM, partner dose 4 µM) gave a cell count of 103%.
For `NC1(c2ccc(-c3nc4ccn5c(=O)[nH]nc5c4cc3-c3ccccc3)cc2)CCC1` + Nc1cccc2c1CN(C1CCC(=O)NC1=O)C2=O [lenalidomide] (first compound 2 µM, partner dose 5 µM), the cell count was 94.6%.
`NC1(c2ccc(-c3nc4ccn5c(=O)[nH]nc5c4cc3-c3ccccc3)cc2)CCC1` + O=C(O)c1ccc(-c2c[nH]c3ncc(-c4ccccc4)cc23)cc1C1CCCC1 [GSK650394] (first compound 2 µM, partner dose 0.8 µM) showed a cell count of 93.6%.
For `C=C(c1ccc(C(=O)O)cc1)c1cc2c(cc1C)C(C)(C)CCC2(C)C` [Bexarotene] + O=C(Nc1cccc(Cl)c1)Nc1ncc(CCNc2ncnc3ccsc23)s1 [SNS314] (first compound 10 µM, partner dose 0.004 µM), the cell count was 81.2%.
Work on `CCCS(=O)(=O)Nc1ccc(F)c(C(=O)c2c[nH]c3ncc(Cl)cc23)c1F` + NCC(=O)Nc1ccc(-n2nc(C(F)(F)F)cc2-c2ccc3c(ccc4ccccc43)c2)cc1 [OSU03012] (first compound 0.4 µM, partner dose 5 µM) yielded a cell count of 71.6%.
Compound `NC1(c2ccc(-c3nc4ccn5c(=O)[nH]nc5c4cc3-c3ccccc3)cc2)CCC1` + C=C(c1ccc(C(=O)O)cc1)c1cc2c(cc1C)C(C)(C)CCC2(C)C [Bexarotene] (first compound 2 µM, partner dose 10 µM) has a cell count of 88.1%.
With `CCCS(=O)(=O)Nc1ccc(F)c(C(=O)c2c[nH]c3ncc(Cl)cc23)c1F` + COc1cc(Nc2ncc(F)c(Nc3ccc4c(n3)NC(=O)C(C)(C)O4)n2)cc(OC)c1OC [Tamatinib] (first compound 0.4 µM, partner dose 2 µM) the cell count was 48.1%.
